Assay [1] has as its target Nicotinamide N-methyltransferase (Homo sapiens) (UniProt P40261). The experiment in a line: Confirmatory Screen for Target Class Profiling of Small Molecule Inhibitors of Methyltransferases (AID 1745852).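 Also: inhibitor potency for blocking SAH production.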 To be noted: MTase-Glo luminescence, SAH detection, recombinant enzyme; measured here: NNMT inhibition potency.
Assay [2] in a line: NCATS anti-infectives library activity on the primary C. elegans qHTS viability assay (AID 1745855). To be noted: C. elegans worm area imaging, day 7; measured here: worm number, day 3. In short, it runs like this: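 Viability is taken from GFP fluorescence of PE254-GFP-FLuc C. elegans imaged by laser cytometry over 7 days. Ten L1 worms per well grow at 21 °C on TOP10 E. coli capsules with titrated compound; levamisole marks toxicity.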
Background: In qHTS, concentration-response curves come from the screen itself.

Assay [3] is described as follows: qHTS for identification of novel therapeutic agents for treatment of microphthalmiaassociated transcription factor (MiT) renal cell carcinoma (RCC) (AID 1963991). The settings on record: CellTiter-Glo, 48 h; for z-score: stronger effect = lower value. In short, it runs like this: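 Curves over 11 concentrations were fitted to CellTiter-Glo luminescence, scaled between empty wells (0%) and DMSO (100%) viability. Cells were UOK109, UOK124 and UOK145 TFE3-fusion RCC lines at 500/well, exposed 48 hours at 37 C.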

Assay [4] has as its target Phenylethanolamine N-methyltransferase (Homo sapiens) (UniProt P11086). The experiment in a line: Confirmatory Screen for Target Class Profiling of Small Molecule Inhibitors of Methyltransferases (AID 1745852).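 Also: inhibitor potency for blocking SAH production.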 The settings on record: MTase-Glo luminescence, SAH detection, recombinant enzyme; measured here: PNMT inhibition potency.
UniProt P11086, sequence (P11086 whole entry, looked up): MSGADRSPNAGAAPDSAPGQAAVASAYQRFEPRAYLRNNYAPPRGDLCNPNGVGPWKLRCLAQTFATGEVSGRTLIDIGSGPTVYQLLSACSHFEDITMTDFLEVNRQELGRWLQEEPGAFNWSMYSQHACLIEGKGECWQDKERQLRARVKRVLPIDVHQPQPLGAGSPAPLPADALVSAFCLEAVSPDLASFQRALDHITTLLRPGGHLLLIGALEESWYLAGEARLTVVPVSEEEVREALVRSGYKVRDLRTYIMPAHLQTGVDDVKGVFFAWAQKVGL
The nature of assay [5]: qHTS drug screen for cell cycle checkpoint inhibitors in PARPi-resistant BRCA-mutant ovarian cancer cell lines. (AID 1963452). The settings on record: PEO1/OlaR viability, CellTiter-Glo luminescence, 96 h. An outline of the steps:
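PEO1, PEO4 and PEO1/OlaR ovarian cancer cells, 600 per well, exposed 96 h at 37C to a dilution series. Viability read by CellTiter-Glo luminescence, normalized to DMSO and empty wells; activity summarized as Z-AUC.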

[6] abbreviates: TFE3-RCC UOK109 viability, measured here: UOK109 Z-AUC.
Where [7] appears, read: TFE3-RCC viability, measured here: UOK124 Z-AUC.
Where [8] appears, read: TFE3-RCC viability, measured here: UOK124 cell viability.
The mark [9] stands for this setting: TFE3-RCC viability, measured here: UOK145 Z-AUC.
[10] abbreviates: TFE3-RCC viability, measured here: UOK145 cell viability.
[11] abbreviates: measured here: PEO1 parental viability.

Molecules are shown by their SMILES. Some of the results follow. Further columns of the screen follow, without active or inactive calls. For some assays here: Compounds called inactive in the main read-out are mostly missing here. Words in brackets tell the shape of the fitted curve; partial curves, single points and poor fits give uncertain potencies.
Tags tell the direction and shape of the fitted curve.

UniProt P40261, sequence (P40261 whole entry, looked up): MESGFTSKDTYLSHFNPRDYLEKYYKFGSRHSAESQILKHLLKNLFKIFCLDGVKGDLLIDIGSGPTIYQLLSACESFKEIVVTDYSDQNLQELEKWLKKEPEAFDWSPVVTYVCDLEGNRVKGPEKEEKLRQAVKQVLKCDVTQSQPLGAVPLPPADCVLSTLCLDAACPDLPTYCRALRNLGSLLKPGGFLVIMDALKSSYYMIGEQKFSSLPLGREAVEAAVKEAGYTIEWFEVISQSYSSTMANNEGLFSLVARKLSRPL

Broadly, the IC50 is the concentration at which inhibition is half-maximal. Turning to `COc1cncc(Nc2ncc(-c3ccccc3OC)c3c2OCC3)c1`, the IC50 in assay [1] is 35 µM [falling, partial curve].

As for `CC1(C(=O)NC2CCCCCC2)Cn2c(c(-n3cccc3)c3ccccc32)C(=O)N1CC1CCCO1` (stereo unspecified), the IC50 in assay [1] was 17.1 µM [falling, partial curve].

As for `COc1ccc(CCNC(=O)CCc2nnc3n(CC(C)C)c(=O)c4ccccc4n23)cc1OC`, the IC50 in assay [1] is 21.5 µM [falling, partial curve].

Regarding `C[C@]1(C2CCCC2)Cc2cc(OCC(=O)O)c(Cl)c(Cl)c2C1=O`, the concentration for half-maximal inhibition (IC50) in assay [1] is 21.5 µM [falling, partial curve].

`N#Cc1ccc(N2N=C3c4ccc(C(=O)O)cc4CC[C@@H]3[C@@H]2C2CCCC2)cc1Cl`: the IC50 in assay [1] is 2.15 µM [falling, full curve].

For `O=C(O)CCc1ccc(NCc2cccc3c2CCCN3CCOc2ccccc2)cc1F`, the half-maximal inhibitory concentration (IC50) in assay [1] is 27.1 µM [falling, single point].

A word on the AC50: it is the midpoint of the concentration-response curve, whichever way the signal moves. For `O=C(c1ccccc1)c1ccc2nc(NC(=O)c3csc(C4CCN(c5ncnc6ccsc56)CC4)n3)[nH]c2c1`, the AC50 in assay [2] was 0.515 µM [falling, full curve, poor fit].

With `Cc1coc2c1C(=O)C(=O)c1c-2ccc2c1CCCC2(C)C`, the z-score is 0.293 in assay [3] (setting [6]), 0.175 in assay [3] (setting [7]) and 0.385 in assay [3] (setting [9]). Besides, the AC50 in assay [3] (setting [8]) was 4.69 µM [falling, full curve].

With `Nc1ncnc2c1c(-c1cnc3[nH]ccc3c1)nn2C1CCCC1`, the AC50 in assay [3] (setting [8]) is 5.26 µM [falling, partial curve]; in assay [3] (setting [10]), 3.32 µM [falling, partial curve].

Turning to `CC(NC(=O)c1ccc2c(=O)nc3c(-c4cccc(F)c4)n[nH]n3c2c1)c1ccc(F)cc1` (stereo unspecified), in assay [4], the concentration for half-maximal inhibition (IC50) is 24.1 µM [falling, partial curve, poor fit].

Take `CCCS(=O)(=O)Nc1ccc(F)c(C(=O)c2c[nH]c3ncc(-c4ccc(Cl)cc4)cc23)c1F`: the IC50 in assay [1] is 10.8 µM [falling, partial curve, poor fit]. For the same compound, the AC50 is 19.5 µM [falling, partial curve] in assay [5] (setting [11]); 15.5 µM [falling, single point] in assay [5] (measured here: PEO4 viability); 20.9 µM [falling, single point] in assay [3] (setting [8]); 23.5 µM [falling, partial curve] in assay [3] (setting [10]). Besides, the values for the z-score in assay [3] (setting [6]), in assay [3] (setting [7]) and in assay [3] (setting [9]) were 0.0416, 0.208 and -0.0944, respectively.

In the case of `CC1CC(C)CN(S(=O)(=O)c2ccc3c(c2)oc(=O)n3CC(=O)Nc2ccc(F)cc2)C1` (stereo unspecified), the IC50 in assay [4] was 19.2 µM [falling, partial curve].

Turning to `O=C1c2ccccc2C(=O)c2cc(S(=O)(=O)NCCO)ccc21`, the IC50 in assay [4] was 24.1 µM [falling, partial curve, poor fit].

On to `N#Cc1c(C2CCNCC2)cc(-c2c(O)cccc2OCC2CC2)nc1N`, for which, in assay [1], the IC50 is 21.5 µM [falling, partial curve]. Besides, the z-score in assay [3] (setting [6]) was -0.323; in assay [3] (setting [7]), -0.27; in assay [3] (setting [9]), 0.712. The AC50 in assay [3] (setting [8]) was 23.5 µM [falling, partial curve]; in assay [3] (setting [10]), 16.6 µM [falling, partial curve].

Regarding `COc1cccc(NC(=O)Cn2c(=O)oc3cc(S(=O)(=O)N4CCCC4)ccc32)c1`, the IC50 in assay [4] is 21.5 µM [falling, partial curve].

With `O=C(Cn1c(=O)oc2cc(S(=O)(=O)N3CCCC3)ccc21)Nc1cccc(Cl)c1`, the IC50 in assay [4] was 15.2 µM [falling, partial curve].

For `COc1ccccc1OCCNCC(O)CCOc1cccc2[nH]c3ccccc3c12` (stereo unspecified), the half-maximal inhibitory concentration (IC50) in assay [4] was 3.83 µM [falling, full curve].

With `NS(=O)(=O)c1ccc(Nc2nc(OCC3CCCCC3)c3[nH]cnc3n2)cc1`, the IC50 in assay [1] was 7.64 µM [falling, partial curve]. Moreover, the AC50 in assay [5] (setting [11]) was 19.5 µM [falling, partial curve]; in assay [5] (measured here: PEO4 viability), 13.8 µM [falling, partial curve, poor fit]; in assay [3] (setting [8]), 33.2 µM [falling, single point]; in assay [3] (setting [10]) it was 20.9 µM [falling, partial curve, poor fit]. Moreover, the z-score amounted to 0.251 in assay [3] (setting [6]), 0.563 in assay [3] (setting [7]) and 0.0223 in assay [3] (setting [9]).

With `O=C(Cn1c(=O)oc2cc(S(=O)(=O)N3CCCC3)ccc21)Nc1ccc(F)c(Cl)c1`, the IC50 in assay [4] is 6.81 µM [falling, partial curve].

As to `CCc1cccc(NC(=O)Cn2c(=O)oc3cc(S(=O)(=O)N4CC(C)CC(C)C4)ccc32)c1` (stereo unspecified), in assay [4], the IC50 is 7.64 µM [falling, full curve].

As for `Cc1cnc(Nc2ccc(CN3CCOCC3)cc2)nc1Nc1cccc(S(=O)(=O)NC(C)(C)C)c1`, in assay [1], the IC50 was 24.1 µM [falling, partial curve]. Further, the AC50 in assay [5] (setting [11]) was 3.89 µM [falling, full curve]; in assay [5] (measured here: PEO4 viability), 6.92 µM [falling, partial curve]; in assay [3] (setting [8]) it was 5.26 µM [falling, full curve]; in assay [3] (setting [10]) it was 13.2 µM [falling, partial curve].

With `COCCn1ccc2c(C3=CCOCC3)nc(-c3cccc4[nH]ccc34)cc21`, the IC50 in assay [4] was 39.3 µM [falling, single point].

For the compound `O=C1c2ccccc2C(=O)c2cc(S(=O)(=O)N(CCO)CCO)ccc21`, the IC50 in assay [4] was 12.1 µM [falling, partial curve].

Regarding `Nc1nc(NCCNc2ncc(-n3ccnc3)c(-c3ccc(Cl)cc3Cl)n2)ccc1[N+](=O)[O-]`, the IC50 in assay [1] was 24.1 µM [falling, partial curve]. Besides, the z-score is -1.4 in assay [3] (setting [6]), -0.514 in assay [3] (setting [7]) and -0.605 in assay [3] (setting [9]). Also, the concentration at half-maximal activity (AC50) was 13.2 µM [falling, partial curve] in assay [3] (setting [8]) and 9.35 µM [falling, full curve] in assay [3] (setting [10]).
